Source: a collection of fitness landscapes (doi:10.1016/j.celrep.2020.107928)
Whole data set: some 81,000 sequences, median “one-hybrid fitness for binding parS DNA” near -0.17, cut for the highest 2% near 0.51. The list shows a part of the results.

B1: Caulobacter ParB omega fusion; a variant is named by its letters at X, in order, B8GW30 (parent)
chain: MESVVVGEPGMSEGRRGLGRGLSALLGEVDAAPAQAPGEQLGGSREAPIEILQRNPDQPRRTFREEDLEDLSNSIREKGVLQPILVRPSPDTAGEYQIVAGERAWRAAQRAGLKTVPIMVRELDDLAVLEIGIIENVQRADLNVLEEALSYKVLMEKFERTQENIAQTIGKSXSHVANXMRLLXLPDEVQSYLVSGELTAXHARAIAAAADPVALAKQIIEGGLSVRETEALARKAPNLSAGKSKGGRPPRVKDTDTQALESDLSSVLGLDVSIDHRGSTGTLTITYATLEQLDDLCNRLTRGI

Variants of: B1
Experiment: one-hybrid fitness for binding parS DNA (scaled: cognate 1, non-cognate 0); higher = stronger binding
Conditions: with parS DNA site
Method in brief: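 On M9-minus-histidine containing 0.1 mM IPTG and 5 mM 3-AT, E. coli USO cells with a HIS3 reporter, site 19 bp from the promoter, grew 48 hours at 37°C to select Caulobacter ParB libraries randomised at four specificity codons. Plasmids from before and after were Illumina-sequenced, with three replicate libraries pooled and variants under 10 reads left out. Fitness is the log change in variant-to-wild-type read ratio, rescaled against cognate and non-cognate.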

| Variant | one-hybrid fitness for binding parS DNA |
| --- | --- |
| LTHY | ≤ 0.2 |
| MVTR | ≤ 0.2 |
| QWMW | ≤ 0.2 |
| RYKY | 0.514 |
| CLYR | ≤ 0.2 |
| PRLI | ≤ 0.2 |
| RGET | 0.308 |
| PYVR | ≤ 0.2 |
| YTCA | ≤ 0.2 |
| WKNT | ≤ 0.2 |
| PPVS | ≤ 0.2 |
| APTM | ≤ 0.2 |
| GSDA | ≤ 0.2 |
| KHFR | ≤ 0.2 |
| TCPR | ≤ 0.2 |
| QPYS | ≤ 0.2 |
| FADW | ≤ 0.2 |
| AIQF | ≤ 0.2 |
| NFYR | ≤ 0.2 |
| RKTA | 0.746 |
| YSKV | ≤ 0.2 |
| ETEM | ≤ 0.2 |
| YTCL | ≤ 0.2 |
| CRMG | ≤ 0.2 |

| Variant | one-hybrid fitness for binding parS DNA |
| --- | --- |
| DGND | ≤ 0.2 |
| SLFT | ≤ 0.2 |
| CNMR | ≤ 0.2 |
| LDTQ | ≤ 0.2 |
| AGQR | ≤ 0.2 |
| KSEW | ≤ 0.2 |
| HRTT | 0.206 |
| LVPL | ≤ 0.2 |
| NMWT | ≤ 0.2 |
| TVSP | ≤ 0.2 |
| TDGC | ≤ 0.2 |
| QQEE | ≤ 0.2 |
| TLNG | ≤ 0.2 |
| EVRW | ≤ 0.2 |
| RLVT | 0.844 |
| SECG | ≤ 0.2 |
| TWFS | ≤ 0.2 |
| AQDF | ≤ 0.2 |
| CYQS | ≤ 0.2 |
| DGTV | ≤ 0.2 |
| AQER | ≤ 0.2 |
| ISHF | ≤ 0.2 |
| RKDS | 0.886 |
| QRPC | ≤ 0.2 |

| Variant | one-hybrid fitness for binding parS DNA |
| --- | --- |
| TKIR | ≤ 0.2 |
| AGLE | ≤ 0.2 |
| PQQG | ≤ 0.2 |
| PCQP | ≤ 0.2 |
| GSMS | ≤ 0.2 |
| TDKI | ≤ 0.2 |
| ARYA | ≤ 0.2 |
| ASYY | ≤ 0.2 |
| MIDT | ≤ 0.2 |
| MHIG | ≤ 0.2 |
| GRVT | ≤ 0.2 |
| TTWC | ≤ 0.2 |
| QITP | ≤ 0.2 |
| GSNG | ≤ 0.2 |
| AHER | ≤ 0.2 |
| SRYS | ≤ 0.2 |
| CTTH | ≤ 0.2 |
| FVHR | ≤ 0.2 |
| MATG | ≤ 0.2 |
| IVAG | ≤ 0.2 |
| QCND | ≤ 0.2 |
| NEKT | ≤ 0.2 |
| LTDK | ≤ 0.2 |
| VIQR | ≤ 0.2 |

| Variant | one-hybrid fitness for binding parS DNA |
| --- | --- |
| DDPK | ≤ 0.2 |
| CGST | ≤ 0.2 |
| PGEH | ≤ 0.2 |
| QGKH | ≤ 0.2 |
| ISSE | ≤ 0.2 |
| IIYW | 0.392 |
| SITT | ≤ 0.2 |
| LTSE | ≤ 0.2 |
| HVGY | ≤ 0.2 |
| CHCS | ≤ 0.2 |
| CRMW | ≤ 0.2 |
| SAAQ | ≤ 0.2 |
| RSKI | ≤ 0.2 |
| SLEW | ≤ 0.2 |
| PLNV | ≤ 0.2 |
| AIIG | ≤ 0.2 |
| SGMY | ≤ 0.2 |
| FHTR | ≤ 0.2 |
| TYYQ | ≤ 0.2 |
| PLLT | ≤ 0.2 |
| MIPS | ≤ 0.2 |
| RLWP | 0.201 |
| QNPM | ≤ 0.2 |
| RMMN | 0.435 |

| Variant | one-hybrid fitness for binding parS DNA |
| --- | --- |
| RASC | 0.973 |
| VKNA | ≤ 0.2 |
| STHA | ≤ 0.2 |
| SMYG | ≤ 0.2 |
| YRSC | ≤ 0.2 |
| IPYR | ≤ 0.2 |
| VRVK | ≤ 0.2 |
| LRHL | ≤ 0.2 |
| EMTG | ≤ 0.2 |
| NRQS | ≤ 0.2 |
| SWKM | ≤ 0.2 |
| HTHR | ≤ 0.2 |
| QHMS | ≤ 0.2 |
| AQEF | ≤ 0.2 |
| PWRT | ≤ 0.2 |
| PVGI | ≤ 0.2 |
| ARLW | ≤ 0.2 |
| LLRN | ≤ 0.2 |
| FPTQ | ≤ 0.2 |
| PEPF | ≤ 0.2 |
| WLSC | ≤ 0.2 |
| EKAG | ≤ 0.2 |
| FNHD | ≤ 0.2 |
| LMPV | ≤ 0.2 |

| Variant | one-hybrid fitness for binding parS DNA |
| --- | --- |
| SSHI | ≤ 0.2 |
| GIIG | ≤ 0.2 |
| AFEC | ≤ 0.2 |
| YTAI | ≤ 0.2 |
| RNSA | 0.495 |
| AGHG | ≤ 0.2 |
| DLFV | ≤ 0.2 |
| RGIK | ≤ 0.2 |
| SIPI | ≤ 0.2 |
| CAAG | ≤ 0.2 |
| VNSG | ≤ 0.2 |
| LQAM | ≤ 0.2 |
| SKHW | ≤ 0.2 |
| NEYR | ≤ 0.2 |
| VKHS | ≤ 0.2 |
| ANAA | ≤ 0.2 |
| RCCT | 0.913 |
| TELK | ≤ 0.2 |
| DSGC | ≤ 0.2 |
| EITL | ≤ 0.2 |
| RLAL | ≤ 0.2 |
| DNQP | ≤ 0.2 |
| WQVR | ≤ 0.2 |
| PYTF | ≤ 0.2 |

| Variant | one-hybrid fitness for binding parS DNA |
| --- | --- |
| SAGC | ≤ 0.2 |
| TKLN | ≤ 0.2 |
| PAIE | ≤ 0.2 |
| GSQV | ≤ 0.2 |
| TYSL | ≤ 0.2 |
| AAQY | ≤ 0.2 |
| EISR | ≤ 0.2 |
| PYSR | ≤ 0.2 |
| AWGD | ≤ 0.2 |
| MRLR | ≤ 0.2 |
| NATR | ≤ 0.2 |
| CLVA | ≤ 0.2 |
| TCHG | ≤ 0.2 |
| AWID | 0.206 |
| RHYG | 0.95 |
| FLHK | ≤ 0.2 |
| AICG | ≤ 0.2 |
| SSNT | ≤ 0.2 |
| LMQD | ≤ 0.2 |
| VALN | ≤ 0.2 |
| WCKR | ≤ 0.2 |
| DTVH | ≤ 0.2 |
| PETL | ≤ 0.2 |
| MPTV | ≤ 0.2 |

| Variant | one-hybrid fitness for binding parS DNA |
| --- | --- |
| ARSC | ≤ 0.2 |
| PFCR | ≤ 0.2 |
| VHIC | ≤ 0.2 |
| GRCR | ≤ 0.2 |
| WYIC | ≤ 0.2 |
| TSNN | ≤ 0.2 |
| NMFL | ≤ 0.2 |
| LVRS | ≤ 0.2 |
| TSYK | ≤ 0.2 |
| QPRD | ≤ 0.2 |
| WSPS | ≤ 0.2 |
| FPRL | ≤ 0.2 |
| WHNC | ≤ 0.2 |
| SKMR | ≤ 0.2 |
| TLDV | ≤ 0.2 |
| TGDG | ≤ 0.2 |
| GNYG | ≤ 0.2 |
| YRYT | ≤ 0.2 |
| WMGS | ≤ 0.2 |
| TEEF | ≤ 0.2 |
| LGLS | ≤ 0.2 |
| YPSG | ≤ 0.2 |
| IVQS | ≤ 0.2 |
| QGLW | ≤ 0.2 |

| Variant | one-hybrid fitness for binding parS DNA |
| --- | --- |
| LPAM | ≤ 0.2 |
| GQMR | ≤ 0.2 |
| ANCT | ≤ 0.2 |
| KMRH | ≤ 0.2 |
| RIRD | ≤ 0.2 |
| RSYE | ≤ 0.2 |
| TTTS | ≤ 0.2 |
| DGSV | ≤ 0.2 |
| RHIR | ≤ 0.2 |
| TQCS | ≤ 0.2 |
| RGDE | ≤ 0.2 |
| QEPE | ≤ 0.2 |
| IWNF | ≤ 0.2 |
| RYNP | ≤ 0.2 |
| YSCA | ≤ 0.2 |
| TAHE | ≤ 0.2 |
| ENIF | ≤ 0.2 |
| WIRT | ≤ 0.2 |
| NPSY | ≤ 0.2 |
| GEAR | ≤ 0.2 |
| MRNV | ≤ 0.2 |
| VYHS | ≤ 0.2 |
| INIP | 0.249 |
| SATS | ≤ 0.2 |

| Variant | one-hybrid fitness for binding parS DNA |
| --- | --- |
| RSVI | ≤ 0.2 |
| INNS | ≤ 0.2 |
| YLYG | ≤ 0.2 |
| SCSP | ≤ 0.2 |
| QRQI | ≤ 0.2 |
| CLPS | ≤ 0.2 |
| TVMT | ≤ 0.2 |
| NNMI | ≤ 0.2 |
| LTIC | ≤ 0.2 |
| CTPG | ≤ 0.2 |
| HEKY | ≤ 0.2 |
| GVTL | ≤ 0.2 |
| KLLK | ≤ 0.2 |
| ESFR | ≤ 0.2 |
| RMQM | 0.351 |
| LISW | ≤ 0.2 |
| RVDT | 0.741 |
| HNYE | ≤ 0.2 |
| ARVD | ≤ 0.2 |
| NVGT | ≤ 0.2 |
| IEMT | ≤ 0.2 |
| EQTS | ≤ 0.2 |
| EMAR | ≤ 0.2 |
| QMCA | ≤ 0.2 |

| Variant | one-hybrid fitness for binding parS DNA |
| --- | --- |
| FSAR | ≤ 0.2 |
| IYKR | ≤ 0.2 |
| MISM | ≤ 0.2 |
| GFFV | ≤ 0.2 |
| GLPY | ≤ 0.2 |
| RELL | ≤ 0.2 |
| KPKT | ≤ 0.2 |
| DPSV | ≤ 0.2 |
| TVGG | ≤ 0.2 |
| WNVT | ≤ 0.2 |
| HFVG | ≤ 0.2 |
| QHMH | ≤ 0.2 |
| ECIS | ≤ 0.2 |
| PAWN | ≤ 0.2 |
| DPIR | ≤ 0.2 |
| NQMR | ≤ 0.2 |
| HFYR | ≤ 0.2 |
| PRLE | ≤ 0.2 |
| FSYV | ≤ 0.2 |
| KWLT | ≤ 0.2 |
| AKNT | ≤ 0.2 |
| VGTL | ≤ 0.2 |
| ITCD | ≤ 0.2 |
| NCCS | ≤ 0.2 |

| Variant | one-hybrid fitness for binding parS DNA |
| --- | --- |
| RMVV | ≤ 0.2 |
| ELVG | ≤ 0.2 |
| KLKQ | ≤ 0.2 |
| SQGS | ≤ 0.2 |
| WVVG | ≤ 0.2 |
| GTAE | ≤ 0.2 |
| INKS | ≤ 0.2 |
| SRAN | ≤ 0.2 |
| AKFS | ≤ 0.2 |
| LFDP | ≤ 0.2 |
| RFRG | 0.992 |
| NTNC | ≤ 0.2 |
| QHAP | ≤ 0.2 |
| QTWQ | ≤ 0.2 |
| STKP | ≤ 0.2 |
| KNMR | ≤ 0.2 |
| FRGV | ≤ 0.2 |
| RHLM | 0.324 |
| LTES | ≤ 0.2 |
| AECT | ≤ 0.2 |
| NGWW | ≤ 0.2 |
| SGNV | ≤ 0.2 |
| ACGT | ≤ 0.2 |
| ALVG | ≤ 0.2 |

| Variant | one-hybrid fitness for binding parS DNA |
| --- | --- |
| PDNR | ≤ 0.2 |
| YATR | ≤ 0.2 |
| PSSD | ≤ 0.2 |
| PWGP | ≤ 0.2 |
| RCQV | ≤ 0.2 |
| KAQV | ≤ 0.2 |
| TPHN | ≤ 0.2 |
| AVIC | ≤ 0.2 |
| TQES | ≤ 0.2 |
| QETT | ≤ 0.2 |
| CHRA | ≤ 0.2 |
| SQMR | ≤ 0.2 |
| PKQM | ≤ 0.2 |
| QTQN | ≤ 0.2 |
| LTPM | ≤ 0.2 |
| RAII | ≤ 0.2 |
| LSFN | ≤ 0.2 |
| VNKT | ≤ 0.2 |
